{"source": "paper PMC5116814", "about": "“Potent, Reversible, and Specific Chemical Inhibitors of Eukaryotic Ribosome Biogenesis” (Cell, 2016)", "molecules": {"B1": {"name": "S. pombe Rsa4 MIDO domain (1-144 aa) (domain or fragment, UniProt O74855 1-144)", "chain": "MATLLPPKSKRQKKESLNPTTIEIPEKFPLVNVQFRASDDSNELASLLVPGNSSVRQLEALLNQLLENSDDPVPYNFALHHEDETIEIQDNLYTSVFHNGLMKTEDHLTLLYTPQAVFRVRAVTRCTASMNGHDGTIISAQFSP"}, "B2": {"name": "S. pombe Ytm1 MIDO domain (1-93 aa) (domain or fragment, UniProt Q9URY0 1-93)", "chain": "MDAQSAPSGQVQVRFTTRNEDLAVGDTPIFVPTSLKRYGLSQIVNHLLKTEKPTPFDFLVQGQLLKTTLDEYIVQNGLSTESILDIEYIQSTL"}, "B3": {"name": "GFP-Rsa4 (protein, UniProt O74855 1-502)", "chain": "MATLLPPKSKRQKKESLNPTTIEIPEKFPLVNVQFRASDDSNELASLLVPGNSSVRQLEALLNQLLENSDDPVPYNFALHHEDETIEIQDNLYTSVFHNGLMKTEDHLTLLYTPQAVFRVRAVTRCTASMNGHDGTIISAQFSPSTSSRLVTGSGDFTARLWDCDTQTPIATMKGHTNWVSCVAWAPDASIIATGSMDNTIRFWDPKKGSPIGDALRRHTKPIMALCWQPLHLAPDSGPYLLASGSKDNTVRIWNVKLRTLLFTLSGHTAPITCVRWGGQNWIYSSSYDKTIRIWDAKDGKCLHILKGHAARVNHLSLSTEHVLRSGAYDHTDFKPKSFSDERRKAKERYEACLKQSGERLVSASDDLQLILWDPQKSTKPITKMHGHQKVVNHASFSPDGRCIATASFDSSVRLWDGKTGKFLATLRGHVAAVYQCAWSTDSRLLVSSSQDTTLKVWDVRSKKMKFDLPGHEDQVFAVDWSPDGQRVASGGADKAVRIWSH"}, "B4": {"name": "Ytm1-3HA (protein, UniProt Q9URY0 1-440)", "chain": "MDAQSAPSGQVQVRFTTRNEDLAVGDTPIFVPTSLKRYGLSQIVNHLLKTEKPTPFDFLVQGQLLKTTLDEYIVQNGLSTESILDIEYIQSTLPPAYLASFSHDDWISGIQLTSDTILTSSYDGIARVWDKSGEIKFQSTGCGSSLKSASWHIPNQSFLTASLDQKIFHWVIEEPESMLDAEKKSSGILQTLFVGHKDIVERVRSLESSSVFISASADNTVGIWDFERSPETTLESFSSSISKKRRRKNAEFTPQAGARSPLILCEGHTGPVMDIVFSDDPSVAYSVGQDHTIKTWDLITGQNVDSKITKAPLLCVEKLTDLHLVICGSSARHIVVHDPRAGSDKIVSHTLSGHKNLVSGLSASPENPYMFASVSHDNTCRVWDVRATSGSIYTISRAEKTGSQWDKLFAVDWNKSIGIVTGGTDKQLQINQSSSFGKSE"}, "B5": {"name": "Ppp1-GFP (protein, UniProt O60164 1-607)", "chain": "MARVKQKGKAGAARIYITRNQALKKLQLTLADFRRICILKGVYPREPKNKKKANKGSTAPVTFYYTKDIQYLLHEPIVQKFREYKVFARKLSKALGKGELETAKRLEARKPTYSLDHIIKERYPTFHDALKDIDDALSMLFLFSTMPVTDKIGAATVANCERLCAEFQHYVIRSNSLRKAFLSIKGIYYQAEIFGEQITWIVPYKFAQSVPTDVDFRIMHTFLEFYQALMGFVNFKLYNTLGLRYPPKIDVAKSESAAGLAAYELEESSSLPAIVHGNNKNARKNIATLKSKIRDIVNSDANVVEQSEKTTEDADEEPETEENLDEFKPADGADNEDSKSLVSHISSSNTSLFSNFTFFLSREVPRFSLEFVIRAFGGKVGWDPILGSGSPFSESDPVITHHICDRPHISQKYEGRIYIQPQWVYDSINKGILERTDLYACGATLPPHLSPFVKVGENDYDPEAELSAEENDDVSEALDDNISGEAVPISKKNDEPENVEQIDDAEEEDLEHQRELEAEAGGVAYSEYVKQNSKSAKKTKKRQRDTLTAEEKEEKEAKELSKMMMSNKQRKLYSKLKNENSKNENYNNALRNRKRDIEKRKKLKVEN"}, "B6": {"name": "S. pombe Rsa4 MIDO domain (1-144 aa) E105D (domain or fragment, UniProt O74855 1-144)", "chain": "B1 chain with E105D"}}, "key": {"Nsa1-5FLAG (S. pombe) [1]": {"target": "T1, Nsa1-5FLAG (S. pombe) (UniProt O94698)", "T1 sequence": "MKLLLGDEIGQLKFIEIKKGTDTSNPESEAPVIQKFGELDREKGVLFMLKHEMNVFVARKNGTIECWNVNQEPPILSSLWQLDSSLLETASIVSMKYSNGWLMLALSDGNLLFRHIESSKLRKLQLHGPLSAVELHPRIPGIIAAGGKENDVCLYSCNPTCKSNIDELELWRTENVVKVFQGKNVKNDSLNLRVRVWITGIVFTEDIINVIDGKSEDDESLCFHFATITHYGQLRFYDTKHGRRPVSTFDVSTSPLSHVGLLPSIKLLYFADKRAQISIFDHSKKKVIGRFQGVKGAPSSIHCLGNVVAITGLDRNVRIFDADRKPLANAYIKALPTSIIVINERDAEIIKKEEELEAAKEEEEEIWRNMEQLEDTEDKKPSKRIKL", "test": "co-IP; Rix1-5FLAG or Nsa1-5FLAG immunoprecipitated with anti-FLAG M2 antibody and Dynabeads Protein G, 1 hr at 4°C, from S. pombe whole cell extracts; western blot with anti-HA, anti-FLAG or anti-GFP; wild-type, mdn1-ts26 (6 hr at 36°C) or mdn1-F1093L cells, untreated or treated with Rbin-1 (1 uM) for the indicated times"}, "[2]": {"target": "T2, S. pombe Mdn1 MIDAS (4301-4717 aa) (S. pombe) (UniProt O94248)", "T2 sequence": "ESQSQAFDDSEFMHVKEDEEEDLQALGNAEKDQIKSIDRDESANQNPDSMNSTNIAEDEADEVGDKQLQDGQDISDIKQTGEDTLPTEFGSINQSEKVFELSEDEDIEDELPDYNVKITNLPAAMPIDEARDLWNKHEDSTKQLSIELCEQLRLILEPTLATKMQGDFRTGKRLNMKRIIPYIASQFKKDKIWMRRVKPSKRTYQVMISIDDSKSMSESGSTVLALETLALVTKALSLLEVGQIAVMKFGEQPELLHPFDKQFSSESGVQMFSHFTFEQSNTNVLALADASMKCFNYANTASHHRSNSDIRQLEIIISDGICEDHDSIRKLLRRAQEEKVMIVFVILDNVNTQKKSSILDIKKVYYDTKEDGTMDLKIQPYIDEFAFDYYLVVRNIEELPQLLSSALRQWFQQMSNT", "test": "two-hybrid; S. cerevisiae AH109; pGBKT7-mdn1 MIDAS as bait, pGADT7 MIDO constructs as prey; spotted on SC-LeuTrp (+His) and SC-LeuTrpHis (-His) plates, 2 days at 32°C"}, "Rix1-5FLAG (S. pombe)": {"target": "T3, Rix1-5FLAG (S. pombe) (UniProt P87243)", "T3 sequence": "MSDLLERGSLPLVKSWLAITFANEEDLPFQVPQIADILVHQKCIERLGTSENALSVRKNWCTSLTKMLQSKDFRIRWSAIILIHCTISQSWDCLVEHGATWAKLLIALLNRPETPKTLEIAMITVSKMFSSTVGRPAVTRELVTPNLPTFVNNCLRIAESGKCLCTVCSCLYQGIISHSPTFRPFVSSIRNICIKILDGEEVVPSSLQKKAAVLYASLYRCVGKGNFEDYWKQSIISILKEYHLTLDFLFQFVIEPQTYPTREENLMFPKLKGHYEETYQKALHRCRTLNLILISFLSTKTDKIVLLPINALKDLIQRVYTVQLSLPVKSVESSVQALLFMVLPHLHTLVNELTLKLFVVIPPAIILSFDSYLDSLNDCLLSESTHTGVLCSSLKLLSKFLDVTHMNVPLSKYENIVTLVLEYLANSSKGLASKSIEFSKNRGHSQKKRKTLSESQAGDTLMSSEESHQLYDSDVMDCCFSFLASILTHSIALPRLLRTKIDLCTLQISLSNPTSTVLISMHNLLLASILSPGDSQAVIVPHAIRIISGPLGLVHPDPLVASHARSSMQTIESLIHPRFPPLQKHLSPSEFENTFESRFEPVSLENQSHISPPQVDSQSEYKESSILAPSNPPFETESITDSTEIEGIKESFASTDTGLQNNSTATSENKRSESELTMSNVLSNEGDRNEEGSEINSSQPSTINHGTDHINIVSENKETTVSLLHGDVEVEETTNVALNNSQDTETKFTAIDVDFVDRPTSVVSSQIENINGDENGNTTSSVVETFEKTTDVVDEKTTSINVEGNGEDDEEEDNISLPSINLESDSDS", "test": "co-IP; Rix1-5FLAG or Nsa1-5FLAG immunoprecipitated with anti-FLAG M2 antibody and Dynabeads Protein G, 1 hr at 4°C, from S. pombe whole cell extracts; western blot with anti-HA, anti-FLAG or anti-GFP; wild-type, mdn1-ts26 (6 hr at 36°C) or mdn1-F1093L cells, untreated or treated with Rbin-1 (1 uM) for the indicated times"}, "Nsa1-5FLAG (S. pombe) [3]": {"target": "T1, Nsa1-5FLAG (S. pombe)", "test": "co-IP; Rix1-5FLAG or Nsa1-5FLAG immunoprecipitated with anti-FLAG M2 antibody and Dynabeads Protein G, 1 hr at 4°C, from S. pombe whole cell extracts; western blot with anti-HA, anti-FLAG or anti-GFP; wild-type, mdn1-ts26 (6 hr at 36°C) or mdn1-F1093L cells, untreated or treated with Rbin-1 (1 uM) for the indicated times", "remark": "listed apart in the source"}}, "note": "Positions count from the first letter of the chain named. Names may count otherwise. Like-named read-outs stand apart in the source and are kept apart here. No constants are given. Whether binding was seen depends on the method and setting. For some assays here: Binding seen in cells or lysates may run through a third protein. Some binding calls cover weakened binding; strength is not graded here. For some assays here: Tags and fused reporters may be left off the sequences shown."}
{"molecule": "GFP-Mdn1 (from UniProt O94248 1-4717)", "values": [{"measurement": "binding", "setting": "Nsa1-5FLAG (S. pombe) [1]", "result": "binds"}]}
{"molecule": "B1", "values": [{"measurement": "binding", "setting": "[2]", "result": "binds"}]}
{"molecule": "B2", "values": [{"measurement": "binding", "setting": "[2]", "result": "binds"}]}
{"molecule": "B3", "values": [{"measurement": "binding", "setting": "Rix1-5FLAG (S. pombe)", "result": "binds"}]}
{"molecule": "B4", "values": [{"measurement": "binding", "setting": "Nsa1-5FLAG (S. pombe) [3]", "result": "binds"}, {"measurement": "binding", "setting": "Rix1-5FLAG (S. pombe)", "result": "binds"}]}
{"molecule": "B5", "values": [{"measurement": "binding", "setting": "Nsa1-5FLAG (S. pombe) [3]", "result": "binds"}]}
{"molecule": "B6", "values": [{"measurement": "binding", "setting": "[2]", "result": "no binding"}]}
